Screen size: about 44,000 compounds; about 340 (0.77%) were called active. Another 5% or so got no clear call; they are omitted. Calls come from the whole dose curve; as a rule, active = well fitted inhibition curve with a large enough effect; inconclusive = small, poorly fitted or top-dose-only effect; inactive = flat fitted curve, though single readings scatter. The list shows a part of the results.
Test: Acumen qHTS Assay for Inhibitors of the mTORC1 Signaling Pathway in MEF (Tsc2-/-, p53-/-) Cells: Sytravon; note: nearly all actives have a fitted effect of over 50% in size;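 for activity change, negative = inhibition: plate controls were DMSO for no effect and rapamycin for full effect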
Conditions: phospho-rpS6 immunofluorescence/PI, 24 h; series mostly up to 38.3 µM; activity change, negative = inhibition: at the top concentration
How it was run: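 Plate MEFs (Tsc2-/-, p53-/-, empty vector) in DMEM/10% FBS; after 24 h add compound, incubate 24 h at 37 degree Celsius; fix in PFA/TX-100, block, stain phospho-rpS6 and 10 uM PI; scan at 488 nm; report % positive cells.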
Potency is the fitted concentration of half-maximal effect.

SMILES | activity change, negative = inhibition | Potency
Cc1cn2c(=O)cc(COc3ccc(NC(=O)c4ccc(C(C)(C)C)cc4)cc3)nc2s1 | inactive: 1.38% | –
CCC1=C(c2ccc(C)cc2)S(=O)(=O)N=C1N1CCC(C(=O)Nc2ccccc2C(=O)OC)CC1 | inactive: -0.726% | –
Cc1cccc(NC(=O)C2CCCN2S(=O)(=O)c2cccc3nsnc23)c1C (stereo not given) | inactive: -5.95% | –
CCOC(=O)c1ccc(NC(=O)CN2C(=O)C(C)(C)c3ccccc32)cc1 | inactive: 0.508% | –
CCCC12CN3CC(CCC)(CN(C1)C3c1ccc(OCc3ccccc3)cc1)C2=O (stereo not given) | inactive: -6.25% | –
Cc1cccc(C)c1NC(=O)CCSc1nc(-c2ccc3c(c2)OCO3)cc(C(F)(F)F)n1 | inactive: 4.13% | –
Fc1ccccc1C(NCCc1ccc(Cl)cc1)c1nnc(-c2ccccc2)o1 (stereo not given) | inactive: -24.6% | –
COc1ccccc1NC(=O)CN(C)S(=O)(=O)c1cccc2cccnc12 | inactive: -11.1% | –
Cc1ccc(Nc2ccc(N3CCN(C(=O)c4cccc([N+](=O)[O-])c4)CC3)nn2)cc1 | inactive: 1.93% | –
Cc1cccc(NC(=O)c2cccc(N3CCCS3(=O)=O)c2)c1 | inactive: 0% | –
Cc1ccccc1NC(=O)Cn1c(=O)n(CCC(=O)N2CCc3ccccc3C2)c(=O)c2ccccc21 | inactive: -3.22% | –
Cc1ccc(CNC(=O)CN2Cc3ccccc3C2=O)cc1 | inactive: -1.67% | –
COc1ccc(NS(=O)(=O)c2cc(-c3onc(C)c3C)ccc2C)c(OC)c1 | inactive: -17.8% | –
CCC1CN(C(=O)N2CCC(C(=O)NCCCc3ccccc3)CC2)c2cc(C)ccc2O1 (stereo not given) | inactive: 9.67% | –
CCCc1cnc2c(c1SCC(=O)Nc1ccc([N+](=O)[O-])cc1)c(=O)n(C)c(=O)n2C | inactive: 0.358% | –
Cc1ccc(Cl)cc1NC(=O)c1sc2nc(C)c(C)c(C)c2c1N | inactive: -7.84% | –
CCOC(=O)c1ccccc1NC(=O)N(Cc1ccc(CC)cc1)Cc1cn[nH]c1-c1ccc(OC)cc1 | inactive: -24.9% | –
Cc1ccc(C2CC(=O)n3nc(-c4ccc(F)cc4)nc3S2)cc1 (stereo not given) | inactive: -0.82% | –
COc1ccc(-n2nc(C(=O)NCCc3ccc(Cl)cc3)c3c4ccccc4n(C)c3c2=O)cc1 | inactive: -4.75% | –
Cc1ccc(NC(=O)Cn2c(=O)n(CCC(=O)N3CCc4ccccc4C3)c(=O)c3ccccc32)c(C)c1 | inactive: -11.2% | –

SMILES | activity change, negative = inhibition | Potency
COc1ccc(C2c3c(-c4ccccc4)n[nH]c3C(=O)N2c2ccc(C(=O)O)cc2)c(OC)c1 (stereo not given) | inactive: 0.0987% | –
COc1cc(NC(=O)Cn2c(-c3ccccc3)cc(C(C)=O)c2C)cc(OC)c1 | inactive: 0.303% | –
CN(Cc1ccccc1)C(=O)CSc1c2c(nc3ccc(Cl)cc13)CCCC2 | – | active: 13.1 µM
Cc1ccc(-c2c(CN3CCN(c4cccc(C)c4C)CC3)csc2C)cc1 | inactive: -4.73% | –
CC(C)NC(=O)CCSc1nc(-c2ccc3c(c2)OCO3)cc(C(F)(F)F)n1 | inactive: -7.23% | –
Cc1cn2c(=O)cc(COc3ccc(C(C)(C)C)cc3)nc2s1 | inactive: -3.61% | –
CC(C)CCn1c(SCc2c(F)cccc2Cl)nc2ccsc2c1=O | inactive: -0.0365% | –
O=C(Nc1ccc(F)c(Cl)c1)C1CCCN(S(=O)(=O)c2cccc3nsnc23)C1 (stereo not given) | inactive: 3.23% | –
Nc1nonc1-c1nc2ccccc2n1CC(=O)Nc1ccccc1C(=O)O | inactive: -11.1% | –
CCOc1ccccc1N(CC)C(=O)c1ccc2c(=O)n3c(nc2c1)CCCCC3 | inactive: -0.151% | –
N#Cc1ccccc1Cn1c(SCC(=O)NCc2ccccc2)nc2ccccc21 | inactive: 0% | –
CCOc1ccc(CCNC(=O)CSCc2nc(-c3cccc(C)c3)oc2C)cc1OCC | inactive: -2.9% | –
CN(C)S(=O)(=O)N1CCC(N2CCN(Cc3ccc(F)cc3)C(=O)C2=O)CC1 | inactive: 5.91% | –
CCc1cccc2c(-c3ccccc3)nc(SCC(=O)Nc3ccc(OC)cc3)nc12 | inactive: 1.89% | –
CCOc1ccc2nc(NC(=O)c3nc(SC(C)C)ncc3Cl)sc2c1 | inactive: -2.27% | –
CC1CCN(C(=O)Cn2c(=O)n(-c3ccc(Cl)cc3)c(=O)c3c4c(sc32)CCC4)CC1 | inactive: -3.99% | –
Cc1cc2nn(-c3ccccc3)nc2cc1NC(=O)Cc1ccc(Cl)cc1 | inactive: 4.19% | –
CC(C)N(Cc1ccccc1)S(=O)(=O)c1ccc(N2CCCCS2(=O)=O)cc1 | inactive: 0% | –
CN(C)S(=O)(=O)c1ccc(C(=O)N(Cc2cccnc2)c2nc3c(F)cc(F)cc3s2)cc1 | inactive: -8.48% | –
CC(=O)N1CCc2c(sc3c2c(=O)n(CCc2ccccc2)c(=O)n3Cc2ccc(F)cc2)C1 | inactive: -0.754% | –

SMILES | activity change, negative = inhibition | Potency
CCOc1ccc(NC(=O)c2sc3nc(-c4ccc(OC)cc4)cn3c2C)cc1 | inactive: -0.127% | –
Cc1c(Cl)cccc1NC(=O)CSc1nc(=O)n(CCN2CCOCC2)c2c1CCC2 | inactive: 0.114% | –
CCc1ccc(-n2c(CCC(=O)O)ccc2-c2cccs2)cc1 | inactive: -10.5% | –
COc1ccc(-n2ccn(CC(=O)Nc3ccccc3C(F)(F)F)c(=O)c2=O)cc1OC | inactive: 8.25% | –
COc1ccc(-c2nsc(NC(=O)c3ccccc3Br)n2)cc1 | inactive: 4.3% | –
COc1cc(NC(=O)C2CCCN(S(=O)(=O)c3cn(C)cn3)C2)cc(OC)c1 (stereo not given) | inactive: 0% | –
CCOC(=O)c1cc2c(=O)n3ccccc3nc2n(CC(C)C)c1=NC(=O)C(C)Oc1ccccc1 (stereo not given) | inactive: 18.3% | –
CC(=O)Nc1ccc(NCc2nnc3n2CCCCC3)cc1 | inactive: 2.85% | –
CCc1ccccc1NC(=O)CCc1c(C)nc2cc(-c3ccccc3)nn2c1C | inactive: -4.68% | –
CCOc1ccc(NC(=O)CCS(=O)(=O)c2cc3c4c(c2)CCN4C(=O)CC3)cc1 | inactive: -2.73% | –
Cc1ccc(Nc2ccc(N3CCN(C(=O)c4ccc([N+](=O)[O-])cc4Cl)CC3)nn2)cc1 | inactive: -6.09% | –
Cc1nnc(N2CCN(C(=O)Nc3cc(F)ccc3F)CC2)c2nn(-c3ccc(Cl)cc3)c(C)c12 | inactive: -10.7% | –
O=C(NC1CC(=O)N(c2ccc(Cl)cc2)C1)C(=O)c1c[nH]c2ccccc12 (stereo not given) | inactive: -7.23% | –
COc1cccc(NC(=O)c2sc3nc(N4CCOCC4)c4c(c3c2N)CC(C)(C)OC4)c1 | inactive: 0.0754% | –
Cc1cccc(NC(=O)NCCn2c(=O)oc3ccc(C)cc32)c1 | inactive: -3.31% | –
Cc1oc2c(c1C(=O)NCc1cccc(Br)c1)C1=NCCN1C=N2 | inactive: -7.69% | –
COc1cc(NC(=O)C(CC(C)C)NS(=O)(=O)c2ccc3c(c2)CCCC(=O)N3)cc(OC)c1 (stereo not given) | inactive: 2.34% | –
CCOC(=O)Cn1c(=O)n(CC2CCCO2)c2nc(-c3ccc(OC)cc3OC)nc(C(N)=O)c21 (stereo not given) | inactive: 4.39% | –
Cc1ccc(CNC(=O)CCCn2c(=O)c3ccccc3n(CC(=O)C(C)(C)C)c2=O)cc1 | inactive: -0.838% | –
COc1ccc2oc(=O)c(-c3csc(/C(C#N)=C/c4ccc(F)cc4)n3)cc2c1 | inactive: -8.17% | –
